# This is one part of the list.
# Tests used:
# Experiment in all cases: glycan array binding signal (z-score within array); higher = stronger binding
# Conditions in all cases: glycan notation: IUPAC condensed, linker removed
# [1] = target: Fuc(a1-2)Gal
# How it was run: (§1)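 Glycan array data were curated from 3228 arrays in the Consortium for Functional Glycomics database and kept only where the protein sequence was available. Glycan names were converted to IUPAC-condensed notation, and columns mapping to the same glycan were averaged. The binding signal is a within-array Z-score, averaged across arrays of the same protein sequence at different concentrations or buffers and across linkers. Negative Z-scores can be read as non-binding.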
# [2] = target: Fuc(a1-2)Gal(b1-3)GalNAc
# How it was run: as §1
# [3] = target: Fuc(a1-2)Gal(b1-3)GalNAc(b1-3)Gal
# How it was run: as §1
# [4] = target: Fuc(a1-2)Gal(b1-3)GalNAc(b1-3)Gal(a1-4)Gal(b1-4)Glc
# How it was run: as §1
# [5] = target: Fuc(a1-2)Gal(b1-3)GalNAc(b1-4)[Neu5Ac(a2-3)]Gal(b1-4)Glc
# How it was run: as §1
# [6] = target: Fuc(a1-2)Gal(b1-3)GlcNAc
# How it was run: as §1
# [7] = target: Fuc(a1-2)Gal(b1-3)GlcNAc(b1-3)Gal(b1-4)Glc
# How it was run: as §1
# [8] = target: Fuc(a1-2)Gal(b1-3)[Fuc(a1-4)]GlcNAc
# How it was run: as §1
# [9] = target: Fuc(a1-2)Gal(b1-4)Glc
# How it was run: as §1
# [10] = target: Fuc(a1-2)Gal(b1-4)Glc6S
# How it was run: as §1
# [11] = target: Fuc(a1-2)Gal(b1-4)GlcNAc
# How it was run: as §1
# [12] = target: Fuc(a1-2)Gal(b1-4)GlcNAc(b1-3)Gal(b1-4)GlcNAc
# How it was run: as §1
# [13] = target: Fuc(a1-2)Gal(b1-4)GlcNAc(b1-3)Gal(b1-4)GlcNAc(b1-3)Gal(b1-4)GlcNAc
# How it was run: as §1
# [14] = target: Fuc(a1-2)Gal(b1-4)GlcNAc6S
# How it was run: as §1
# [15] = target: Fuc(a1-2)Gal(b1-4)[Fuc(a1-3)]GlcNAc
# How it was run: as §1
# [16] = target: Fuc(a1-2)Gal(b1-4)[Fuc(a1-3)]GlcNAc(b1-3)Gal(b1-4)[Fuc(a1-3)]GlcNAc
# How it was run: as §1
# [17] = target: Fuc(a1-2)Gal(b1-4)[Fuc(a1-3)]GlcNAc(b1-3)Gal(b1-4)[Fuc(a1-3)]GlcNAc(b1-3)Gal(b1-4)[Fuc(a1-3)]GlcNAc
# How it was run: as §1
# [18] = target: Fuc(a1-2)Gal6S(b1-4)Glc
# How it was run: as §1
# [19] = target: Fuc(a1-2)Gal6S(b1-4)Glc6S
# How it was run: as §1
# [20] = target: Fuc(a1-2)Gal6S(b1-4)GlcNAc
# How it was run: as §1
# [21] = target: Fuc(a1-2)[Gal(a1-3)]Gal
# How it was run: as §1
# [22] = target: Fuc(a1-2)[Gal(a1-3)]Gal(b1-3)GlcNAc
# How it was run: as §1
# [23] = target: Fuc(a1-2)[Gal(a1-3)]Gal(b1-4)Glc
# How it was run: as §1
# [24] = target: Fuc(a1-2)[Gal(a1-3)]Gal(b1-4)GlcNAc
# How it was run: as §1
# [25] = target: Fuc(a1-2)[Gal(a1-3)]Gal(b1-4)[Fuc(a1-3)]GlcNAc
# How it was run: as §1
# [26] = target: Fuc(a1-2)[Gal(a1-4)]Gal(b1-4)GlcNAc
# How it was run: as §1
# [27] = target: Fuc(a1-2)[GalNAc(a1-3)]Gal
# How it was run: as §1
# [28] = target: Fuc(a1-2)[GalNAc(a1-3)]Gal(b1-3)GlcNAc
# How it was run: as §1
# [29] = target: Fuc(a1-2)[GalNAc(a1-3)]Gal(b1-4)Glc
# How it was run: as §1
# [30] = target: Fuc(a1-2)[GalNAc(a1-3)]Gal(b1-4)GlcNAc
# How it was run: as §1
# [31] = target: Fuc(a1-2)[GalNAc(a1-3)]Gal(b1-4)[Fuc(a1-3)]GlcNAc
# How it was run: as §1
# [32] = target: Fuc(a1-2)[GalNAc(a1-4)]Gal(b1-4)GlcNAc
# How it was run: as §1
# [33] = target: Fuc(a1-2)[GalNAc(b1-3)]Gal
# How it was run: as §1
# [34] = target: Fuc(a1-3)GlcNAc
# How it was run: as §1
# [35] = target: Fuc(a1-3)[Gal(b1-4)]Glc6S
# How it was run: as §1
# [36] = target: Fuc(a1-3)[Gal(b1-4)]GlcNAc
# How it was run: as §1
# [37] = target: Fuc(a1-3)[Gal(b1-4)]GlcNAc(b1-2)Man(a1-3)[Fuc(a1-3)[Gal(b1-4)]GlcNAc(b1-2)Man(a1-6)]Man(b1-4)GlcNAc(b1-4)GlcNAc
# How it was run: as §1
binder,measurement,setting,value
BDCA2 ex-domain (Homo sapiens) (protein) MASHHHHHHIEGRGLNDIFEAQKIEWHESLVPRGSCPTPWTSFQSSCYFISTGMQSWTKSQKNCSVMGADLVVINTREEQDFIIQNLKRNSSYFLGLSDPGGRRHWQWVDQTPYNENVTFWHSGEPNNLDERCAIINFRSSEEWGWNDIHCHVPQKSICKMKKIY,glycan array binding signal (z-score),[1],0.241
same,glycan array binding signal (z-score),[2],-0.189
same,glycan array binding signal (z-score),[3],-0.165
same,glycan array binding signal (z-score),[4],-0.148
same,glycan array binding signal (z-score),[5],0.03
same,glycan array binding signal (z-score),[6],0.024
same,glycan array binding signal (z-score),[7],-0.14
same,glycan array binding signal (z-score),[8],-0.238
same,glycan array binding signal (z-score),[9],-0.318
same,glycan array binding signal (z-score),[10],0.257
same,glycan array binding signal (z-score),[11],0.418
same,glycan array binding signal (z-score),[12],0.294
same,glycan array binding signal (z-score),[13],0.207
same,glycan array binding signal (z-score),[14],0.828
same,glycan array binding signal (z-score),[15],-0.182
same,glycan array binding signal (z-score),[16],-0.368
same,glycan array binding signal (z-score),[17],-0.266
same,glycan array binding signal (z-score),[18],-0.201
same,glycan array binding signal (z-score),[19],-0.249
same,glycan array binding signal (z-score),[20],-0.244
same,glycan array binding signal (z-score),[21],0.352
same,glycan array binding signal (z-score),[22],-0.203
same,glycan array binding signal (z-score),[23],-0.022
same,glycan array binding signal (z-score),[24],-0.341
same,glycan array binding signal (z-score),[25],-0.36
same,glycan array binding signal (z-score),[26],-0.297
same,glycan array binding signal (z-score),[27],-0.21
same,glycan array binding signal (z-score),[28],-0.115
same,glycan array binding signal (z-score),[29],-0.119
same,glycan array binding signal (z-score),[30],-0.032
same,glycan array binding signal (z-score),[31],-0.146
same,glycan array binding signal (z-score),[32],-0.142
same,glycan array binding signal (z-score),[33],0.726
same,glycan array binding signal (z-score),[34],-0.3
same,glycan array binding signal (z-score),[35],0.201
same,glycan array binding signal (z-score),[36],0.182
same,glycan array binding signal (z-score),[37],-0.379

# — the supplement of paper PMC8728848
